Results reported in patent US11618753B2 (priority 2018, dated 2023).

tested on: MLKL phosphorylation, HT29-L23 human colorectal adenocarcinoma cells; experiment: cells; conditions: read-out: pMLKL HCS Cell Assay (IC50, uM)

Q: With `CCC(O)(C(=O)N1C[C@H](F)[C@H](NC(=O)c2cc(-c3cc(C(F)(F)F)c4c(N)ncnn34)c(F)cc2Cl)C1)C(F)(F)F` (stereo partly drawn) [Example 880, 5-[4-amino-5-(trifluoromethyl)pyrrolo[2,1-f][1,2,4]triazin-7-yl]-2-chloro-4-fluoro-N-[(3R,4S)-4-fluoro-1-[2-hydroxy-2-(trifluoromethyl)butanoyl]pyrrolidin-3-yl]benzamide] as the compound, how does the IC50 read?
A: 0.0074 µM

Q: Which IC50 does the source give for `CC(O)(CC(=O)N1C[C@H](F)[C@H](NC(=O)c2cc(-c3cc(C(F)(F)F)c4c(N)ncnn34)c(F)cc2Cl)C1)C(F)(F)F` (stereo partly drawn) [Example 881, 5-[4-amino-5-(trifluoromethyl)pyrrolo[2,1-f][1,2,4]triazin-7-yl]-2-chloro-4-fluoro-N-[(3R,4S)-4-fluoro-1-(4,4,4-trifluoro-3-hydroxy-3-methylbutanoyl)pyrrolidin-3-yl]benzamide] here?
A: 0.0056 µM

Q: How did the IC50 turn out when `Nc1ncnn2c(-c3cc(C(=O)N[C@@H]4CN(C(=O)CC(C(F)(F)F)C(F)(F)F)C[C@@H]4F)c(Cl)cc3F)cc(C(F)(F)F)c12` [Example 882, 5-[4-amino-5-(trifluoromethyl)pyrrolo[2,1-f][1,2,4]triazin-7-yl]-2-chloro-4-fluoro-N-[(3R,4S)-4-fluoro-1-[4,4,4-trifluoro-3-(trifluoromethyl)butanoyl]pyrrolidin-3-yl]benzamide] was run?
A: 0.005 µM

Q: Which IC50 does the source give for `CC(CC(=O)N1C[C@H](F)[C@H](NC(=O)c2cc(-c3cc(C(F)(F)F)c4c(N)ncnn34)c(F)cc2Cl)C1)C(F)(F)F` (stereo partly drawn) [Example 883, 5-[4-amino-5-(trifluoromethyl)pyrrolo[2,1-f][1,2,4]triazin-7-yl]-2-chloro-4-fluoro-N-[(3R,4S)-4-fluoro-1-(4,4,4-trifluoro-3-methylbutanoyl)pyrrolidin-3-yl]benzamide] here?
A: 0.0052 µM

Q: For `CC(C(=O)N1C[C@H](F)[C@H](NC(=O)c2cc(-c3cc(C(F)(F)F)c4c(N)ncnn34)c(F)cc2Cl)C1)C(F)(F)F` (stereo partly drawn) [Example 884, 5-[4-amino-5-(trifluoromethyl)pyrrolo[2,1-f][1,2,4]triazin-7-yl]-2-chloro-4-fluoro-N-[(3R,4S)-4-fluoro-1-(3,3,3-trifluoro-2-methylpropanoyl)pyrrolidin-3-yl]benzamide], which IC50 is on record?
A: 0.0066 µM

Q: `Nc1ncnn2c(-c3cc(C(=O)N[C@@H]4CN(C(=O)CC(O)(C(F)(F)F)C(F)(F)F)C[C@@H]4F)c(Cl)cc3F)cc(C(F)(F)F)c12` [Example 885, 5-[4-amino-5-(trifluoromethyl)pyrrolo[2,1-f][1,2,4]triazin-7-yl]-2-chloro-4-fluoro-N-[(3R,4S)-4-fluoro-1-[4,4,4-trifluoro-3-hydroxy-3-(trifluoromethyl)butanoyl]pyrrolidin-3-yl]benzamide] was tested. Which IC50 did it give?
A: 0.005 µM

Q: `Nc1ncnn2c(-c3cc(C(=O)N[C@@H]4CN(C(=O)C5CC(F)C5)C[C@@H]4F)c(Cl)cc3F)cc(C(F)(F)F)c12` (stereo partly drawn) [Example 888, 5-[4-amino-5-(trifluoromethyl)pyrrolo[2,1-f][1,2,4]triazin-7-yl]-2-chloro-4-fluoro-N-[(3R,4S)-4-fluoro-1-(3-fluorocyclobutanecarbonyl)pyrrolidin-3-yl]benzamide] was tested. Which IC50 did it give?
A: 0.0022 µM

Q: How did the IC50 turn out when `CCC(O)(C(=O)N1C[C@H](F)[C@H](NC(=O)c2ccc(F)c(-c3cc(C(F)(F)F)c4c(N)ncnn34)c2)C1)C(F)(F)F` (stereo partly drawn) [Example 889, 3-[4-amino-5-(trifluoromethyl)pyrrolo[2,1-f][1,2,4]triazin-7-yl]-4-fluoro-N-[(3R,4S)-4-fluoro-1-[2-hydroxy-2-(trifluoromethyl)butanoyl]pyrrolidin-3-yl]benzamide] was run?
A: 0.012 µM

Q: `Nc1ncnn2c(-c3ccc(C(F)(F)F)c(C(=O)N[C@@H]4CN(C(=O)C5(F)CC5)C[C@@H]4F)c3)cc(C(F)(F)F)c12` [Example 890, 5-[4-amino-5-(trifluoromethyl)pyrrolo[2,1-f][1,2,4]triazin-7-yl]-N-[(3R,4S)-4-fluoro-1-(1-fluorocyclopropanecarbonyl)pyrrolidin-3-yl]-2-(trifluoromethyl)benzamide] was tested. Which IC50 did it give?
A: 0.092 µM

Q: With `Nc1ncnn2c(-c3ccc(C(F)(F)F)c(C(=O)N[C@@H]4CN(C(=O)CC(O)(C(F)(F)F)C(F)(F)F)C[C@@H]4F)c3)cc(C(F)(F)F)c12` [Example 891, 5-[4-amino-5-(trifluoromethyl)pyrrolo[2,1-f][1,2,4]triazin-7-yl]-N-[(3R,4S)-4-fluoro-1-[4,4,4-trifluoro-3-hydroxy-3-(trifluoromethyl)butanoyl]pyrrolidin-3-yl]-2-(trifluoromethyl)benzamide] as the compound, how does the IC50 read?
A: 0.0093 µM

Q: `Nc1ncnn2c(-c3ccc(C(F)(F)F)c(C(=O)N[C@@H]4CN(C(=O)C5CC(F)(F)C5)C[C@@H]4F)c3)cc(C(F)(F)F)c12` [Example 892, 5-[4-amino-5-(trifluoromethyl)pyrrolo[2,1-f][1,2,4]triazin-7-yl]-N-[(3R,4S)-1-(3,3-difluorocyclobutanecarbonyl)-4-fluoropyrrolidin-3-yl]-2-(trifluoromethyl)benzamide] was tested. Which IC50 did it give?
A: 0.028 µM

Q: Which IC50 does the source give for `Nc1ncnn2c(-c3ccc(C(F)(F)F)c(C(=O)N[C@@H]4CN(C(=O)C5CC(F)C5)C[C@@H]4F)c3)cc(C(F)(F)F)c12` (stereo partly drawn) [Example 893, 5-[4-amino-5-(trifluoromethyl)pyrrolo[2,1-f][1,2,4]triazin-7-yl]-N-[(3R,4S)-4-fluoro-1-(3-fluorocyclobutanecarbonyl)pyrrolidin-3-yl]-2-(trifluoromethyl)benzamide] here?
A: 0.017 µM

Q: Which IC50 does the source give for `CC(C)(F)C(=O)N1C[C@H](F)[C@H](NC(=O)c2cc(-c3cc(C(F)(F)F)c4c(N)ncnn34)ccc2C(F)(F)F)C1` [Example 894] here?
A: 0.115 µM

Q: How did the IC50 turn out when `CC(C)(O)C(=O)N1C[C@H](F)[C@H](NC(=O)c2cc(-c3cc(C(F)(F)F)c4c(N)ncnn34)ccc2C(F)(F)F)C1` [Example 897, 5-[4-amino-5-(trifluoromethyl)pyrrolo[2,1-f][1,2,4]triazin-7-yl]-N-[(3R,4S)-4-fluoro-1-(2-hydroxy-2-methylpropanoyl)pyrrolidin-3-yl]-2-(trifluoromethyl)benzamide] was run?
A: 0.482 µM

Q: For `CC(O)(CC(=O)N1C[C@H](F)[C@H](NC(=O)c2cc(-c3cc(C(F)(F)F)c4c(N)ncnn34)ccc2C(F)(F)F)C1)C(F)(F)F` (stereo partly drawn) [Example 898, 5-[4-amino-5-(trifluoromethyl)pyrrolo[2,1-f][1,2,4]triazin-7-yl]-N-[(3R,4S)-4-fluoro-1-(4,4,4-trifluoro-3-hydroxy-3-methylbutanoyl)pyrrolidin-3-yl]-2-(trifluoromethyl)benzamide], which IC50 is on record?
A: 0.019 µM

Q: Which IC50 does the source give for `CCC(O)(C(=O)N1C[C@H](F)[C@H](NC(=O)c2cc(-c3cc(C(F)(F)F)c4c(N)ncnn34)ccc2C(F)(F)F)C1)C(F)(F)F` (stereo partly drawn) [Example 899, 5-[4-amino-5-(trifluoromethyl)pyrrolo[2,1-f][1,2,4]triazin-7-yl]-N-[(3R,4S)-4-fluoro-1-[2-hydroxy-2-(trifluoromethyl)butanoyl]pyrrolidin-3-yl]-2-(trifluoromethyl)benzamide] here?
A: 0.048 µM

Q: With `Nc1ncnn2c(-c3ccc(C(F)(F)F)c(C(=O)N[C@@H]4CN(C(=O)C5CCC(F)(F)C5)C[C@@H]4F)c3)cc(C(F)(F)F)c12` (stereo partly drawn) [Example 900, 5-[4-amino-5-(trifluoromethyl)pyrrolo[2,1-f][1,2,4]triazin-7-yl]-N-[(3R,4S)-1-(3,3-difluorocyclopentanecarbonyl)-4-fluoropyrrolidin-3-yl]-2-(trifluoromethyl)benzamide] as the compound, how does the IC50 read?
A: 0.023 µM

Q: `Nc1ncnn2c(-c3ccc(C(F)(F)F)c(C(=O)N[C@@H]4CN(C(=O)CC(F)(F)F)C[C@@H]4F)c3)cc(C(F)(F)F)c12` [Example 901, 5-[4-amino-5-(trifluoromethyl)pyrrolo[2,1-f][1,2,4]triazin-7-yl]-N-[(3R,4S)-4-fluoro-1-(3,3,3-trifluoropropanoyl)pyrrolidin-3-yl]-2-(trifluoromethyl)benzamide] was tested. Which IC50 did it give?
A: 0.141 µM

Q: `CC(C)CC(=O)N1C[C@H](F)[C@H](NC(=O)c2cc(-c3cc(C(F)(F)F)c4c(N)ncnn34)ccc2C(F)(F)F)C1` [Example 902, 5-[4-amino-5-(trifluoromethyl)pyrrolo[2,1-f][1,2,4]triazin-7-yl]-N-[(3R,4S)-4-fluoro-1-(3-methylbutanoyl)pyrrolidin-3-yl]-2-(trifluoromethyl)benzamide] was tested. Which IC50 did it give?
A: 0.018 µM

Q: How did the IC50 turn out when `Nc1ncnn2c(-c3ccc(C(F)(F)F)c(C(=O)N[C@@H]4CN(C(=O)C5CCC(F)(F)CC5)C[C@@H]4F)c3)cc(C(F)(F)F)c12` [Example 903, 5-[4-amino-5-(trifluoromethyl)pyrrolo[2,1-f][1,2,4]triazin-7-yl]-N-[(3R,4S)-1-(4,4-difluorocyclohexanecarbonyl)-4-fluoropyrrolidin-3-yl]-2-(trifluoromethyl)benzamide] was run?
A: 0.058 µM

Q: For `C[C@@](O)(C(=O)N1C[C@H](F)[C@H](NC(=O)c2cc(-c3cc(C(F)(F)F)c4c(N)ncnn34)ccc2C(F)(F)F)C1)C(F)(F)F` [Example 904, 5-[4-amino-5-(trifluoromethyl)pyrrolo[2,1-f][1,2,4]triazin-7-yl]-N-[(3R,4S)-4-fluoro-1-[(28)-3,3,3-trifluoro-2-hydroxy-2-methylpropanoyl]pyrrolidin-3-yl]-2-(trifluoromethyl)benzamide], which IC50 is on record?
A: 0.015 µM

Q: `Nc1ncnn2c(-c3ccc(C(F)(F)F)c(C(=O)N[C@@H]4CN(C(=O)c5ccccc5F)C[C@@H]4F)c3)cc(C(F)(F)F)c12` [Example 906, 5-[4-amino-5-(trifluoromethyl)pyrrolo[2,1-f][1,2,4]triazin-7-yl]-N-[(3R,4S)-4-fluoro-1-(2-fluorobenzoyl)pyrrolidin-3-yl]-2-(trifluoromethyl)benzamide] was tested. Which IC50 did it give?
A: 0.02 µM

Q: How did the IC50 turn out when `CC(C(=O)N1C[C@H](F)[C@H](NC(=O)c2cc(-c3cc(C(F)(F)F)c4c(N)ncnn34)ccc2C(F)(F)F)C1)C(F)(F)F` (stereo partly drawn) [Example 907] was run?
A: 0.036 µM

Q: Which IC50 does the source give for `CC(C)CC(=O)N1C[C@H](F)[C@H](NC(=O)c2cc(-c3cc(C(F)(F)F)c4c(N)ncnn34)ccc2CF)C1` [Example 909, 5-[4-amino-5-(trifluoromethyl)pyrrolo[2,1-f][1,2,4]triazin-7-yl][(3R,4S)-4-fluoro-1-(3-methylbutanoyl)pyrrolidin-3-yl]-2-(fluoromethyl)benzamide] here?
A: 0.0056 µM
